This note sets out measurements from article PMC10668032.

Some of the results follow. At the low end of the ranking the order means little.

For this assay, the target named is SIX1 homeodomain (reference allele) (UniProt Q15475). Description: universal protein binding microarray. The conditions noted are these: Universal all-10-mer PBM (8x60K, AMADID 030236), 300 nM GST-tagged protein, Alexa Fluor 488 anti-GST; buffer, salt, pH and temperature not stated; high values mean tight binding; most listed sequences are background and not binding sites; double strand, one strand shown.
In the case of CCGATCGC, the binding signal was determined as 0.212 E-score.
Then TCCCCGGA, with 0.11 E-score.
Then AAACGAAC, with -0.0714 E-score; and CTGCAACC, with -0.0757 E-score.
Regarding TGACAAAA, the binding signal is -0.249 E-score.
Turning to ACTATTGC, the binding signal is -0.166 E-score.
As to AGATGACA, the binding signal is 0.0629 E-score.
Then AGTGAATC, with -0.0511 E-score; and AAGACTGC, with -0.291 E-score; and GAAATTTA, with -0.283 E-score.
The same measure for AATACCTC: 0.331 E-score; for AGAACTAC: -0.0612 E-score.
The same measure for ATAAAATA: 0.201 E-score; for CGAGCGTA: -0.0467 E-score; for AATATCCG: 0.317 E-score.
Regarding CTGCGTGC, the binding signal is -0.199 E-score.
The same measure for AATCATCC: 0.0593 E-score; for ACAGCCAT: 0.0303 E-score.
Turning to ATGGATCC, the binding signal is 0.362 E-score.
The same measure for GGCAGAAA: -0.139 E-score.
For TGAATAAA, the binding signal is -0.238 E-score.
Then TCGAGTAA, with -0.108 E-score; and CCGAGACG, with 0.0724 E-score; and CAGACTGA, with -0.00513 E-score.
Then AGAGAGGA, with 0.0333 E-score; and ATACGTCG, with 0.284 E-score.
As for GGCCACCC, the binding signal is -0.274 E-score.
The same measure for AAATCAAG: -0.234 E-score; for CTCAAAAC: -0.1 E-score; for TCATTTAA: 0.0933 E-score.
Then TACATATA, with 0.254 E-score; and CCCACAAA, with 0.0457 E-score; and CATTAGAC, with 0.0165 E-score.
Then AAGCGCCC, with -0.196 E-score; and CAAAGTCC, with -0.096 E-score.
AGACGCTA: the binding signal is 0.0493 E-score.
Turning to AATGACTC, the binding signal was -0.212 E-score.
Then CGACGAAG, with -0.135 E-score; and GTCGCTGA, with -0.0154 E-score; and GCTAGGAA, with -0.138 E-score.
The same measure for CAAATGAC: -0.292 E-score.
For AAAGCCGC, the binding signal is -0.288 E-score.
With CATGCAGC, the binding signal was -0.0629 E-score.
Turning to AACCCTGC, the binding signal came out at 0.0338 E-score.
Then GCCGAACA, with -0.239 E-score; and ACATTTAC, with -0.171 E-score; and GCAGGTTA, with 0.0305 E-score.
For AAAGGACG, the binding signal is -0.287 E-score.
Then CAGGAATC, with 0.133 E-score; and AGGGGGCC, with -0.245 E-score.
For the sequence AGACCTTA, the binding signal is 0.0295 E-score.
With AGCGATTG, the binding signal is -0.0994 E-score.
Then ATGTCTTA, with -0.0747 E-score; and AGGAGTTG, with -0.112 E-score.
The same measure for AACCGAGC: -0.154 E-score; for GAGCCGAC: -0.172 E-score.
For the sequence GAACCCAC, the binding signal is 0.106 E-score.
Then CAACTTAG, with -0.0537 E-score; and AAGCAGTA, with -0.0251 E-score.
Then GAGCTAAA, with -0.196 E-score.
The same measure for ATCCACCC: 0.343 E-score; for GAGTATGC: -0.0971 E-score.
In the case of CACAAAGC, the binding signal was -0.137 E-score.
GATGGACA: the binding signal was -0.00968 E-score.
In the case of CACACAGC, the binding signal was -0.164 E-score.
The same measure for CATAACAA: -0.175 E-score; for CACTGGGG: 0.0491 E-score.
The same measure for AAGCTACT: 0.00855 E-score.
As to CGGGTCCC, the binding signal was 0.0186 E-score.
Then ACATGTTA, with -0.0786 E-score; and CCGCTTGC, with -0.0988 E-score.
The same measure for AGAGAGGG: 0.0238 E-score; for ATACCCAA: 0.401 E-score.
Regarding AATTTGAT, the binding signal was determined as 0.149 E-score.
Then TAATACAA, with 0.154 E-score; and CATGCTCG, with -0.198 E-score.
The same measure for TGTACAAA: -0.21 E-score; for AGGGTGAT: 0.366 E-score; for GCTGCCAC: -0.201 E-score.
Then AATTTTAC, with -0.242 E-score.
For ATAGGGGA, the binding signal turned out to be 0.287 E-score.
Turning to AGTCATAT, the binding signal was 0.257 E-score.
Regarding AGATACTC, the binding signal was found to be 0.402 E-score.
The same measure for AAACGGTC: -0.335 E-score; for GCCGCTCA: -0.201 E-score; for CTTCGGAC: 0.0614 E-score.
The same measure for AGGAACTC: -0.286 E-score; for GAATGGTA: -0.0789 E-score; for ATGAGGGG: 0.0899 E-score.
Consider AGCGCAGG, for which the binding signal is -0.115 E-score.
The same measure for GTGCCAAC: -0.0705 E-score; for GGGGGGTA: 0.26 E-score; for GAAACGTA: -0.161 E-score.
For the sequence GCTGTCAA, the binding signal was -0.154 E-score.
Then GCCTTTAC, with -0.178 E-score; and ACTTATAG, with -0.0185 E-score; and AAGAAATA, with -0.13 E-score.
In the case of AAAGGAGG, the binding signal was -0.202 E-score.
With GACCCATA, the binding signal was determined as 0.116 E-score.
Then ACCATTCT, with -0.118 E-score.
Then GCTGGCCC, with -0.182 E-score; and ACAGGGGT, with 0.156 E-score.
For GTGAACCA, the binding signal was -0.0156 E-score.
Then AGTGAAAA, with -0.172 E-score; and CTTTCAGA, with -0.094 E-score; and CGTCGCAG, with -0.168 E-score.
The same measure for GACGAGGA: -0.0704 E-score; for GGAGGCCA: -0.0651 E-score; for ATCCGCCG: 0.361 E-score.
Then ACTGATGA, with -0.0721 E-score.
In the case of AGGATCTG, the binding signal turned out to be 0.244 E-score.
With CTCCGGGC, the binding signal is -0.16 E-score.
The same measure for CTAGAGCA: -0.0639 E-score; for GAAGTCCC: -0.288 E-score.
In the case of AACAAAAT, the binding signal is -0.334 E-score.
Regarding AGTTGTTC, the binding signal was -0.33 E-score.
As to TCATAGCA, the binding signal was -0.0469 E-score.
The same measure for CCTCTCTA: -0.104 E-score; for CCTGGTAC: -0.0166 E-score; for CCATTTCG: -0.0817 E-score.
The same measure for CCAACTCG: -0.00197 E-score; for TAAAGTGA: 0.131 E-score.
The same measure for CGCATCTA: 0.0774 E-score; for ACCTTACG: -0.102 E-score.
In the case of CACGCGCA, the binding signal is -0.109 E-score.
Then ATAGCCTG, with 0.205 E-score; and CCATATTA, with 0.265 E-score; and AAACCGTG, with -0.00827 E-score.
Regarding CACAAGCC, the binding signal was -0.241 E-score.
The same measure for GTATTAAC: 0.272 E-score.
Then TAGTTCGA, with -0.0607 E-score; and ACGATAAA, with -0.161 E-score.
In the case of TATATACA, the binding signal amounted to 0.284 E-score.
AGTGGCAA: the binding signal is -0.0548 E-score.
The same measure for CATATCGC: 0.424 E-score; for CAGCTGTA: -0.2 E-score; for CTAGAGAC: -0.179 E-score.
The same measure for TGAAATCA: -0.131 E-score; for AGCGGCAT: 0.0587 E-score.
Consider CGATAAAA, for which the binding signal stood at 0.0179 E-score.
The same measure for AAGACTAG: -0.268 E-score; for AGTTGTTA: -0.183 E-score; for ATTTACTA: -0.0211 E-score.
The same measure for AATACAGT: -0.0384 E-score; for AGAACTTA: -0.00409 E-score; for CTCGGACC: -0.0627 E-score.
Then GCTCAGCA, with -0.163 E-score.
As to AGAATATC, the binding signal is 0.283 E-score.
Then AATTTTAT, with -0.0921 E-score; and ATGACCCG, with 0.119 E-score; and GCGGCCCA, with -0.207 E-score.
The same measure for ACTCTGTC: -0.104 E-score; for AATGCACA: 0.00443 E-score; for TCCTTAAA: -0.0982 E-score.
Turning to TGCAGACA, the binding signal was -0.105 E-score.
Then AGCGTAGA, with -0.063 E-score; and ATGTGGGA, with 0.0217 E-score; and AGTACGAA, with -0.0528 E-score.
Then AACCATAA, with -0.125 E-score.
The same measure for CCCCCGTC: -0.0781 E-score.
For the sequence CCGTAGCC, the binding signal was -0.157 E-score.
Then CTAAATAG, with -0.0261 E-score.
The same measure for ATCTAGCG: -0.00709 E-score; for GTGCGATA: 0.36 E-score.
Regarding CCTACGGA, the binding signal was found to be 0.0576 E-score.
The same measure for CTCGGTTA: 0.0335 E-score; for AAGTTCCC: -0.291 E-score.
As to GCTATAAA, the binding signal is -0.0708 E-score.
For the sequence CAACAGTC, the binding signal was -0.168 E-score.
The same measure for CCTAAGTC: -0.173 E-score; for ACCAAGAT: 0.145 E-score; for GGCATTCA: -0.067 E-score.
